According to PubChem BioAssay (NCATS):
Inconclusive results, whose numbers are uncertain, are shown with a selection of clear calls. Potencies beside an inconclusive call are fits to weak or partial responses and may not hold up. Calls of active or inactive are those of the source. Calls follow the shape of the dose curve; as a rule, active = well fitted cell-killing curve with a large enough effect; inconclusive = small, poorly fitted or top-dose-only effect, or effect the other way; inactive = no such curve, though single readings can be large or run the other way.
Potency is read from the fitted curve at half-maximal effect; tags tell the direction and shape of the fitted curve.

Test: Viability qHTS for spleen associated tyrosine kinase inhibitor (SYKi) naive MV4-11 cells (AID 1963823); also: nearly all actives have a fitted effect of over 40% in size
Settings: MV4-11 AML viability, CellTiter-Glo luminescence, 72 h; series mostly up to 45 µM
Method in brief: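 Luminescence from CellTiter-Glo, developed 10 min at room temperature, gave viability of MV4-11 cells never exposed to SYK inhibitor. Cells (500/well) had been incubated with compounds for 72 hr under standard culture conditions.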
For `C[C@]12CC[C@H](O)C[C@@H]1CC[C@@H]1[C@@H]2CC[C@]2(C)[C@@H](C3=CC(=O)OC3)CC[C@]12O`, the Potency was active: 3.21 µM.
In the case of `CC1=CC2/C=C(\C)CCC(O)C3OC(C)(C)OC3CC(=O)OC23C(=O)NC(CC(C)C)C3C1C` (configuration not stated), the Potency is reported as inconclusive: 11.2 µM [cytotoxic, single point].
With `COP(=S)(OC)Oc1cc(Cl)c(Cl)cc1Cl` the Potency was “inactive”.
With `C[C@]12CC[C@H](O)C[C@H]1CC[C@@H]1[C@@H]2[C@H](O)C[C@]2(C)[C@@H](c3ccc(=O)oc3)CC[C@]12O` the Potency was active: 0.0184 µM.
For `C[C@]12CC[C@@H](O)C[C@H]1CC[C@@H]1[C@@H]2CC[C@]2(C)C(=O)CC[C@@H]12`, the Potency was inconclusive: 23.1 µM [cytotoxic, partial curve].
In the case of `C#C[C@]1(O)CC[C@H]2[C@@H]3CC[C@H]4Cc5nc6nc7ccccc7n6cc5C[C@]4(C)[C@H]3CC[C@@]21C`, the Potency is reported as active: 9.2 µM.
With `C[C@]12CC[C@H]3[C@@H](CC=C4C[C@@H](O)CC[C@@]43C)[C@@H]1CC[C@@H]2O` the Potency was inconclusive: 13.3 µM [cytotoxic, partial curve, poor fit].
For `C=CCN1CCC2(C)c3cc(O)ccc3C[C@H]1[C@H]2C`, the Potency was inconclusive: 8.2 µM [cytotoxic, partial curve, poor fit].
For `c1ccc(C2CC2)c(OCC2=NCCN2)c1`, the Potency was “inactive”.
With `CN1CCC(O)(c2ccc(F)cc2)C(C(=O)c2ccc(F)cc2)C1` (configuration not stated) the Potency was “inactive”.
With `CC(C(=O)c1ccccc1)N(C)C` (configuration not stated) the Potency was “inactive”.
For `COC(=O)[C@]12CCC(C)(C)C[C@@H]1[C@@H]1C(=O)C=C3[C@]4(C)C=C(C#N)C(=O)C(C)(C)[C@@H]4CC[C@@]3(C)[C@]1(C)CC2`, the Potency was inconclusive: 1.03 µM [cytotoxic, full curve].
